For nine compounds, cytotoxicity call and growth inhibition call results are on record in the antibiotic and cytotoxicity screens of Wong et al. (2023).

The subject of one experiment is HSkMC. The experiment can be described thus: cytotoxicity call (relative viability < 0.9). Conditions: 10 µM.
A further experiment relates to HepG2. The experiment can be described thus: cytotoxicity call (relative viability < 0.9). As to conditions: 10 µM.
Another experiment deals with S. aureus RN4220. The experiment can be described thus: growth inhibition call (relative growth <= 0.2). Conditions: 50 µM.

The other results are listed elsewhere or left out.

As for `Brc1ccc(-c2cc3n(c2)CCc2ccccc2-3)cc1`, the cytotoxicity call with HSkMC and in the experiment with HepG2 was “inactive” each time. Besides, in the experiment with S. aureus RN4220, the growth inhibition call is “inactive”.

For `CCOC(=O)c1c(CN2CCN(c3ccccc3)CC2)n(C2CCCCC2)c2cc(Br)c(O)cc12`, the cytotoxicity call in the experiment with HSkMC is “active”. Besides, in the experiment with HepG2, the cytotoxicity call is “inactive”. Moreover, the growth inhibition call in the experiment on S. aureus RN4220 is “inactive”.

Take `Cc1ccc(S(=O)(=O)N(C)C[C@@H]2OCCCC[C@H](C)Oc3ccc(NC(=O)NC4CCCCC4)cc3C(=O)N([C@@H](C)CO)C[C@H]2C)cc1`: the cytotoxicity call in the experiment with HSkMC was “inactive”. Besides, the cytotoxicity call in the experiment on HepG2 is “active”. Also, the growth inhibition call in the experiment on S. aureus RN4220 is “inactive”.

Regarding `C[C@H](CO)N1C[C@H](C)[C@H](CN(C)C(=O)Nc2ccc(F)cc2)OCc2ccccc2-c2c(n(C)c3ccccc23)C1=O`, the cytotoxicity call in the experiment on HSkMC (human skeletal muscle cells) and with HepG2 was “inactive” throughout. Besides, in the experiment with S. aureus RN4220, the growth inhibition call was “inactive”.

For the compound `CN(C)CCN1CCO[C@@H]2CN(Cc3cnn(C)c3)C[C@@H]21`, the cytotoxicity call in the experiment with HSkMC and in the experiment with HepG2 was “inactive” throughout. The growth inhibition call in the experiment on S. aureus RN4220 was “inactive”.

In the case of `C[C@H]1CN([C@@H](C)CO)C(=O)c2cccc(NC(=O)c3cnccn3)c2O[C@H]1CN(C)Cc1ccc2c(c1)OCO2`, the cytotoxicity call with HSkMC and in the experiment on HepG2 was “inactive” in each case. For the same compound, the growth inhibition call in the experiment with S. aureus RN4220 is “inactive”.

With `C[C@@H](O)C#Cc1ccc2c(c1)O[C@@H](CN(C)C(=O)c1ccccc1)[C@@H](C)CN([C@@H](C)CO)S2(=O)=O`, the cytotoxicity call in the experiment with HSkMC and with HepG2 was “inactive” throughout. Besides, in the experiment on S. aureus RN4220, the growth inhibition call is “inactive”.

Consider `CN1C(=O)c2cc(NC(=O)c3cccs3)ccc2OC[C@H]2O[C@H](CC(=O)NCC(F)(F)F)CC[C@@H]21`, for which the cytotoxicity call with HSkMC and in the experiment with HepG2 was “inactive” each time. Moreover, the growth inhibition call in the experiment with S. aureus RN4220 is “inactive”.

With `c1ccc(Oc2ccccc2)cc1`, the cytotoxicity call in the experiment with HSkMC and in the experiment on HepG2 was “inactive” throughout. Also, in the experiment on S. aureus RN4220, the growth inhibition call is “inactive”.
